This is one part of the list.
Legend:
Assay in all cases: glycan array binding signal (z-score within array); higher = stronger binding
Settings in all cases: glycan notation: IUPAC condensed, linker removed
[1] = molecular target: Fuc(a1-3)[Gal(b1-4)]GlcNAc
Method in brief: (§1)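 From the Consortium for Functional Glycomics database, 3228 arrays were curated, keeping only those whose protein sequence was available. Binding is given as a within-array Z-score averaged across arrays sharing a protein sequence and across linkers. Negative Z-scores can be read as non-binding.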

[2] = molecular target: Fuc(a1-3)[Gal(b1-4)]GlcNAc(b1-4)Gal(b1-4)[Fuc(a1-3)]GlcNAc
Method in brief: as §1

[3] = molecular target: Fuc(a1-3)[Gal(b1-4)]GlcNAc(b1-4)Gal(b1-4)[Fuc(a1-3)]GlcNAc(b1-4)Gal(b1-4)[Fuc(a1-3)]GlcNAc
Method in brief: as §1

[4] = molecular target: Fuc(a1-3)[Gal3S(b1-4)]GlcNAc
Method in brief: as §1

[5] = molecular target: Fuc(a1-3)[GalNAc(b1-4)]GlcNAc
Method in brief: as §1

[6] = molecular target: Fuc(a1-4)GlcNAc
Method in brief: as §1

[7] = molecular target: Fuc(b1-3)GlcNAc
Method in brief: as §1

[8] = molecular target: Gal(a1-2)Gal
Method in brief: as §1

[9] = molecular target: Gal(a1-3)Gal
Method in brief: as §1

[10] = molecular target: Gal(a1-3)Gal(b1-3)GlcNAc
Method in brief: as §1

[11] = molecular target: Gal(a1-3)Gal(b1-4)Glc
Method in brief: as §1

[12] = molecular target: Gal(a1-3)Gal(b1-4)GlcNAc
Method in brief: as §1

[13] = molecular target: Gal(a1-3)Gal(b1-4)[Fuc(a1-3)]GlcNAc
Method in brief: as §1

[14] = molecular target: Gal(a1-3)GalNAc
Method in brief: as §1

[15] = molecular target: Gal(a1-3)[Gal(a1-4)]Gal(b1-4)GlcNAc
Method in brief: as §1

[16] = molecular target: Gal(a1-4)Gal(b1-4)Glc
Method in brief: as §1

[17] = molecular target: Gal(a1-4)Gal(b1-4)GlcNAc
Method in brief: as §1

[18] = molecular target: Gal(a1-4)GlcNAc
Method in brief: as §1

[19] = molecular target: Gal(a1-6)Glc
Method in brief: as §1

[20] = molecular target: Gal(b1-2)Gal
Method in brief: as §1

[21] = molecular target: Gal(b1-3)Gal
Method in brief: as §1

[22] = molecular target: Gal(b1-3)GalNAc
Method in brief: as §1

[23] = molecular target: Gal(b1-3)GalNAc(b1-3)Gal(a1-4)Gal(b1-4)Glc
Method in brief: as §1

[24] = molecular target: Gal(b1-3)GalNAc(b1-4)Gal(b1-4)Glc
Method in brief: as §1

[25] = molecular target: Gal(b1-3)GalNAc(b1-4)[Neu5Ac(a2-3)]Gal(b1-4)Glc
Method in brief: as §1

[26] = molecular target: Gal(b1-3)GlcNAc
Method in brief: as §1

[27] = molecular target: Gal(b1-3)GlcNAc(b1-3)Gal(b1-4)Glc
Method in brief: as §1

[28] = molecular target: Gal(b1-3)GlcNAc(b1-3)Gal(b1-4)GlcNAc
Method in brief: as §1

[29] = molecular target: Gal(b1-3)[Fuc(a1-4)]GlcNAc
Method in brief: as §1

[30] = molecular target: Gal(b1-3)[Fuc(a1-4)]GlcNAc(b1-3)Gal(b1-4)GlcNAc
Method in brief: as §1

B1: DEC205 (Homo sapiens), O60449 (protein)
chain: MRTGWATPRRPAGLLMLLFWFFDLAEPSGRAANDPFTIVHGNTGKCIKPVYGWIVADDCDETEDKLWKWVSQHRLFHLHSQKCLGLDITKSVNELRMFSCDSSAMLWWKCEHHSLYGAARYRLALKDGHGTAISNASDVWKKGGSEESLCDQPYHEIYTRDGNSYGRPCEFPFLIDGTWHHDCILDEDHSGPWCATTLNYEYDRKWGICLKPENGCEDNWEKNEQFGSCYQFNTQTALSWKEAYVSCQNQGADLLSINSAAELTYLKEKEGIAKIFWIGLNQLYSARGWEWSDHKPLNFLNWDPDRPSAPTIGGSSCARMDAESGLWQSFSCEAQLPYVCRKPLNNTVELTDVWTYSDTRCDAGWLPNNGFCYLLVNESNSWDKAHAKCKAFSSDLISIHSLADVEVVVTKLHNEDIKEEVWIGLKNINIPTLFQWSDGTEVTLTYWDENEPNVPYNKTPNCVSYLGELGQWKVQSCEEKLKYVCKRKGEKLNDASSDKMCPPDEGWKRHGETCYKIYEDEVPFGTNCNLTITSRFEQEYLNDLMKKYDKSLRKYFWTGLRDVDSCGEYNWATVGGRRRAVTFSNWNFLEPASPGGCVAMSTGKSVGKWEVKDCRSFKALSICKKMSGPLGPEEASPKPDDPCPEGWQSFPASLSCYKVFHAERIVRKRNWEEAERFCQALGAHLSSFSHVDEIKEFLHFLTDQFSGQHWLWIGLNKRSPDLQGSWQWSDRTPVSTIIMPNEFQQDYDIRDCAAVKVFHRPWRRGWHFYDDREFIYLRPFACDTKLEWVCQIPKGRTPKTPDWYNPDRAGIHGPPLIIEGSEYWFVADLHLNYEEAVLYCASNHSFLATITSFVGLKAIKNKIANISGDGQKWWIRISEWPIDDHFTYSRYPWHRFPVTFGEECLYMSAKTWLIDLGKPTDCSTKLPFICEKYNVSSLEKYSPDSAAKVQCSEQWIPFQNKCFLKIKPVSLTFSQASDTCHSYGGTLPSVLSQIEQDFITSLLPDMEATLWIGLRWTAYEKINKWTDNRELTYSNFHPLLVSGRLRIPENFFEEESRYHCALILNLQKSPFTGTWNFTSCSERHFVSLCQKYSEVKSRQTLQNASETVKYLNNLYKIIPKTLTWHSAKRECLKSNMQLVSITDPYQQAFLSVQALLHNSSLWIGLFSQDDELNFGWSDGKRLHFSRWAETNGQLEDCVVLDTDGFWKTVDCNDNQPGAICYYSGNETEKEVKPVDSVKCPSPVLNTPWIPFQNCCYNFIITKNRHMATTQDEVHTKCQKLNPKSHILSIRDEKENNFVLEQLLYFNYMASWVMLGITYRNNSLMWFDKTPLSYTHWRAGRPTIKNEKFLAGLSTDGFWDIQTFKVIEEAVYFHQHSILACKIEMVDYKEEHNTTLPQFMPYEDGIYSVIQKKVTWYEALNMCSQSGGHLASVHNQNGQLFLEDIVKRDGFPLWVGLSSHDGSESSFEWSDGSTFDYIPWKGQTSPGNCVLLDPKGTWKHEKCNSVKDGAICYKPTKSKKLSRLTYSSRCPAAKENGSRWIQYKGHCYKSDQALHSFSEAKKLCSKHDHSATIVSIKDEDENKFVSRLMRENNNITMRVWLGLSQHSVDQSWSWLDGSEVTFVKWENKSKSGVGRCSMLIASNETWKKVECEHGFGRVVCKVPLGPDYTAIAIIVATLSILVLMGGLIWFLFQRHRLHLAGFSSVRYAQGVNEDEIMLPSFHD
glycan array binding signal (z-score) [1]: -0.335 | glycan array binding signal (z-score) [2]: -0.241 | glycan array binding signal (z-score) [3]: -0.168 | glycan array binding signal (z-score) [4]: -0.128 | glycan array binding signal (z-score) [5]: -0.116 | glycan array binding signal (z-score) [6]: -0.037 | glycan array binding signal (z-score) [7]: -0.339 | glycan array binding signal (z-score) [8]: -0.046 | glycan array binding signal (z-score) [9]: -0.216 | glycan array binding signal (z-score) [10]: -0.064 | glycan array binding signal (z-score) [11]: 1.66 | glycan array binding signal (z-score) [12]: -0.396 | glycan array binding signal (z-score) [13]: -0.293 | glycan array binding signal (z-score) [14]: -0.266 | glycan array binding signal (z-score) [15]: -0.316 | glycan array binding signal (z-score) [16]: -0.362 | glycan array binding signal (z-score) [17]: -0.18 | glycan array binding signal (z-score) [18]: -0.209 | glycan array binding signal (z-score) [19]: -0.145 | glycan array binding signal (z-score) [20]: -0.037 | glycan array binding signal (z-score) [21]: -0.262 | glycan array binding signal (z-score) [22]: -0.352 | glycan array binding signal (z-score) [23]: -0.217 | glycan array binding signal (z-score) [24]: 0.224 | glycan array binding signal (z-score) [25]: -0.351 | glycan array binding signal (z-score) [26]: -0.248 | glycan array binding signal (z-score) [27]: -0.421 | glycan array binding signal (z-score) [28]: -0.245 | glycan array binding signal (z-score) [29]: -0.342 | glycan array binding signal (z-score) [30]: 0.068
